Reference: PMC4075450
Like-named read-outs stand apart in the source and are kept apart here. Results are given in words; binding and its absence hold for the method and conditions named. Some entries that bind do so weakly or less than the wild type. Tags and fused reporters may be left off the sequences shown.

By UniProt entry, the sequences of proteins in these tests, tags left out.
UniProt Q8S307: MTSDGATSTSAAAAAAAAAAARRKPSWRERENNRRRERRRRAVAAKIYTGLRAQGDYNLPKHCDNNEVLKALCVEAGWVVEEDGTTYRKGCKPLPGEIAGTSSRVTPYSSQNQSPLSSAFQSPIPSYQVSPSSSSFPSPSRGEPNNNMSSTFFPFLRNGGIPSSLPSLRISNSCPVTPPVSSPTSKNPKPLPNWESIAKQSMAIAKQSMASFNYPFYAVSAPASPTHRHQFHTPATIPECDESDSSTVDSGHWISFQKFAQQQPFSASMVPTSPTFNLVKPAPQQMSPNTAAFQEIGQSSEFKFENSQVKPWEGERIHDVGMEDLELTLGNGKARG

T1: ARF8 (auxin response factor 8), yeast two-hybrid fusion (Arabidopsis thaliana) (UniProt Q9FGV1)
T1 sequence: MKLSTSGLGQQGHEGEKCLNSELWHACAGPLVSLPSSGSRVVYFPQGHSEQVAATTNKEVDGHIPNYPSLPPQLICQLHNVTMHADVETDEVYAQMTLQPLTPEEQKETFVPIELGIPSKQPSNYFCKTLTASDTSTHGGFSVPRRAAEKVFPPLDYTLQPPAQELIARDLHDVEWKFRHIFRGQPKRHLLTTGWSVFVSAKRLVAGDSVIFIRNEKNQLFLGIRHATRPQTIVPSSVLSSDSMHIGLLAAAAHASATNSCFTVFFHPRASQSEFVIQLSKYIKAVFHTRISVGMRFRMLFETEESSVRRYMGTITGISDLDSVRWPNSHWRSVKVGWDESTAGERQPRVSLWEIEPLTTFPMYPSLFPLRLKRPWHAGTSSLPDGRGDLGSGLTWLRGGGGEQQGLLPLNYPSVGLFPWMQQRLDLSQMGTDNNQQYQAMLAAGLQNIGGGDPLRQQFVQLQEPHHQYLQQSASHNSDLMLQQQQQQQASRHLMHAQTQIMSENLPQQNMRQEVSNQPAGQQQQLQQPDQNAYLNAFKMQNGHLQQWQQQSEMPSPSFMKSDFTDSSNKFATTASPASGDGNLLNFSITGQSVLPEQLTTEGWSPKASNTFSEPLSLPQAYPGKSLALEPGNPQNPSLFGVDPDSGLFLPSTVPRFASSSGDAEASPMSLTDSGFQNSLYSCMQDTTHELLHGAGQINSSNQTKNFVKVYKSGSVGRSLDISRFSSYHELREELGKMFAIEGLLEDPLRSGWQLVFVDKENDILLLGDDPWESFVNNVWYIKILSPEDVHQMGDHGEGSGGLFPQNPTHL

T2: ARF6 (auxin response factor 6), yeast two-hybrid fusion (Arabidopsis thaliana) (UniProt Q9ZTX8)
T2 sequence: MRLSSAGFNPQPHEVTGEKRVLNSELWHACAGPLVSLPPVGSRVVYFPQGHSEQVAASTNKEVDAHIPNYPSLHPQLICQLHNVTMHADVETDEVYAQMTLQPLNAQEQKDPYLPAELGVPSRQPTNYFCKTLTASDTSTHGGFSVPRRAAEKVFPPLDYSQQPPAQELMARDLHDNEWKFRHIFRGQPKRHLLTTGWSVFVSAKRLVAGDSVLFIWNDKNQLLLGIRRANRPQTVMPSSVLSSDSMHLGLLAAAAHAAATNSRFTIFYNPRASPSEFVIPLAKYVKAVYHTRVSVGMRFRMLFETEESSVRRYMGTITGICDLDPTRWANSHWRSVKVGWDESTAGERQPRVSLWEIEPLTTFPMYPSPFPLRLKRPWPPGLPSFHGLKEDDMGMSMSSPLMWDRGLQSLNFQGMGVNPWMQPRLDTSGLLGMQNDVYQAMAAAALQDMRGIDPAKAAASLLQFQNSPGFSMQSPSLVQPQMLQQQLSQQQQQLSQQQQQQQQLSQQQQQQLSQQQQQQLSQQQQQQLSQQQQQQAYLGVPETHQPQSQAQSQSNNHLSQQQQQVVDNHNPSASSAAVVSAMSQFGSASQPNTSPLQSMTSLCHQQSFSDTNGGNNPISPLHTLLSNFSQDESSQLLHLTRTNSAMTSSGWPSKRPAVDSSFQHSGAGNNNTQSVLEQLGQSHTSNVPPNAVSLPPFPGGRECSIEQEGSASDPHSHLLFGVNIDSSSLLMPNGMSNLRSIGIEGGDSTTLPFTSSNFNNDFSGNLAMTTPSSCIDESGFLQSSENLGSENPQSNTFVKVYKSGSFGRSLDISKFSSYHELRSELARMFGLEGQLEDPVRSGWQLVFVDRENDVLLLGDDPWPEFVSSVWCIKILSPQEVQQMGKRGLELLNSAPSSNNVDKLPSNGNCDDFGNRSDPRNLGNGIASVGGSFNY

T3: ARF7 (auxin response factor 7), yeast two-hybrid fusion (Arabidopsis thaliana) (UniProt P93022)
T3 sequence: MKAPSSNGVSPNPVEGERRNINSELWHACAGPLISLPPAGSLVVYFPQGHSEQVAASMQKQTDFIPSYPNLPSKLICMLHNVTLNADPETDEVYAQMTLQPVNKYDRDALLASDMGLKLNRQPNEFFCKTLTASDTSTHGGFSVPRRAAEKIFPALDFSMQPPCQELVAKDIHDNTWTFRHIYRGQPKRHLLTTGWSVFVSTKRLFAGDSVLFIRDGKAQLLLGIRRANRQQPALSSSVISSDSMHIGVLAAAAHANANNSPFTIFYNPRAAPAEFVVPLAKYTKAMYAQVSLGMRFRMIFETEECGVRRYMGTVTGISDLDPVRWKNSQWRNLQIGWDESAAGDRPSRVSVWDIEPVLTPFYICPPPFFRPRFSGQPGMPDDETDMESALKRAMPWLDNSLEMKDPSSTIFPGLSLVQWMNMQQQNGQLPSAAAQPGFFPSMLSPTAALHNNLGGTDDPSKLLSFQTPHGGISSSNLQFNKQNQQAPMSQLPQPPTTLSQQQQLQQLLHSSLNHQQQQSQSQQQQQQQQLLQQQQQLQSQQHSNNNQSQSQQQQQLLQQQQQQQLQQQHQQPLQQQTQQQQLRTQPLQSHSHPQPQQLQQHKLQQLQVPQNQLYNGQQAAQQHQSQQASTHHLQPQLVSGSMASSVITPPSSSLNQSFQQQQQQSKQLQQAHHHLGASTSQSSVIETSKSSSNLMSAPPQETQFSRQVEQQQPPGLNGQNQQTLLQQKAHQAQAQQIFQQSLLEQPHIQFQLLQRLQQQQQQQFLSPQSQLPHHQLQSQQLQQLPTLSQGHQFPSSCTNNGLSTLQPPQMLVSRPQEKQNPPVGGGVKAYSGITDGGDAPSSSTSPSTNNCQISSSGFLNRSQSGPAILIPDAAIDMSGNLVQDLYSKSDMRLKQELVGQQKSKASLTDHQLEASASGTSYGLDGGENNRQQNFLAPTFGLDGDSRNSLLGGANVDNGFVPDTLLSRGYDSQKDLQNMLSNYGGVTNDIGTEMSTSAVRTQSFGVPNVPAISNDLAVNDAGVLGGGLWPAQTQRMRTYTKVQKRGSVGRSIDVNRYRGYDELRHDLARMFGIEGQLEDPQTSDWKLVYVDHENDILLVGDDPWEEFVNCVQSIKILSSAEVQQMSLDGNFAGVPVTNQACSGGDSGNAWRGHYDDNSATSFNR

T4: ARF1 (auxin response factor 1), yeast two-hybrid fusion (Arabidopsis thaliana) (UniProt Q8L7G0)
T4 sequence: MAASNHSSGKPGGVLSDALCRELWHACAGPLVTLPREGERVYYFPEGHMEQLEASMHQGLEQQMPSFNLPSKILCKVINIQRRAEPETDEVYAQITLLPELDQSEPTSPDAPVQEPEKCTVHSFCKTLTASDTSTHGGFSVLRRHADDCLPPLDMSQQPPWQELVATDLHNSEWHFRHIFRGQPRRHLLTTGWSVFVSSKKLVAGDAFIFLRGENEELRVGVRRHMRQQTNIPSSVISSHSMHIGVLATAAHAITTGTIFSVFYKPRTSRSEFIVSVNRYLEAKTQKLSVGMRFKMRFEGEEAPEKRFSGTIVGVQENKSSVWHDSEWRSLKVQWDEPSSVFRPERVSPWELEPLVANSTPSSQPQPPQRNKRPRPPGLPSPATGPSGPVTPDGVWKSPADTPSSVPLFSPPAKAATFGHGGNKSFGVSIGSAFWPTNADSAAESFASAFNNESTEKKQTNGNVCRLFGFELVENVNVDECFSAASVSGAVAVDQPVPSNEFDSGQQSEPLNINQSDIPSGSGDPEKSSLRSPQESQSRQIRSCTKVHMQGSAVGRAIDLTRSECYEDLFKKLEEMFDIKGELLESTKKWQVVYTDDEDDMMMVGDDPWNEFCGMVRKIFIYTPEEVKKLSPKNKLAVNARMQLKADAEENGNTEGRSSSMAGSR

T5: BEE2, yeast two-hybrid fusion (Arabidopsis thaliana) (UniProt Q93VJ4)
T5 sequence: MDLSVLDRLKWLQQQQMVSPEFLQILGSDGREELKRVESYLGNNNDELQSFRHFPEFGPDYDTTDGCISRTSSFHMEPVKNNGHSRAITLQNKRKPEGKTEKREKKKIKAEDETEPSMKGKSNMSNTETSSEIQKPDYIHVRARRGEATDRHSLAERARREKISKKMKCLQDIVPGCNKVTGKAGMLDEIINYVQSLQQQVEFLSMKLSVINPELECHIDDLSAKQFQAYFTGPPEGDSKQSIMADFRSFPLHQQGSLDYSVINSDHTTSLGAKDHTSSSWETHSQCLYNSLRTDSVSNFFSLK

T6: IAA3, yeast two-hybrid fusion (Arabidopsis thaliana) (UniProt Q38822)
T6 sequence: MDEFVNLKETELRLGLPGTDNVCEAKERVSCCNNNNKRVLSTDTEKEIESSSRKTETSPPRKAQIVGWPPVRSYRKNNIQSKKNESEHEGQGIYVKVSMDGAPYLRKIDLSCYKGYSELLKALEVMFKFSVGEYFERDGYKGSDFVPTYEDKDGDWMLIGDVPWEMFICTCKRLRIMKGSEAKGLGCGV

T7: HBI1, yeast two-hybrid fusion (Arabidopsis thaliana) (UniProt Q9ZPW3)
T7 sequence: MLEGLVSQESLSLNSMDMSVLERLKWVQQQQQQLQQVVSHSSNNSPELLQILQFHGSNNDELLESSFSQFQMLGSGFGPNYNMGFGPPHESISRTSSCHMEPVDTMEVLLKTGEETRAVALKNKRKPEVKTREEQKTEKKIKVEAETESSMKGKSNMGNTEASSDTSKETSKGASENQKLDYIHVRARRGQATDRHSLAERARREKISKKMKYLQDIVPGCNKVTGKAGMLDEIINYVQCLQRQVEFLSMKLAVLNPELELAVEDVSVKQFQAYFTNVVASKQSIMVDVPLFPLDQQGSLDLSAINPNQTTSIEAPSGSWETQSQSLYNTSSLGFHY


Experiments:
Assay in all cases: two-hybrid; yeast; clones grown on synthetic dropout medium without histidine (−HIS) plus 1 mM 3AT (1 or 5 mM 3AT for the ARF6 fragments); activation domain and DNA binding domain fusions
[1] = molecular target: T1, ARF8 (auxin response factor 8), yeast two-hybrid fusion (Arabidopsis thaliana)
[2] = molecular target: T2, ARF6 (auxin response factor 6), yeast two-hybrid fusion (Arabidopsis thaliana)
[3] = molecular target: T3, ARF7 (auxin response factor 7), yeast two-hybrid fusion (Arabidopsis thaliana)
[4] = molecular target: T4, ARF1 (auxin response factor 1), yeast two-hybrid fusion (Arabidopsis thaliana)
[5] = molecular target: T1, ARF8 (auxin response factor 8), yeast two-hybrid fusion (Arabidopsis thaliana); remark: listed apart in the source
[6] = molecular target: T2, ARF6 (auxin response factor 6), yeast two-hybrid fusion (Arabidopsis thaliana); remark: listed apart in the source
[7] = molecular target: T3, ARF7 (auxin response factor 7), yeast two-hybrid fusion (Arabidopsis thaliana); remark: listed apart in the source
[8] = molecular target: T4, ARF1 (auxin response factor 1), yeast two-hybrid fusion (Arabidopsis thaliana); remark: listed apart in the source
[9] = molecular target: T5, BEE2, yeast two-hybrid fusion (Arabidopsis thaliana)
[10] = molecular target: T6, IAA3, yeast two-hybrid fusion (Arabidopsis thaliana)
[11] = molecular target: T7, HBI1, yeast two-hybrid fusion (Arabidopsis thaliana)

| binding [1] | binding [2] | binding [3] | binding [4] | binding [5] | binding [6] | binding [7] | binding [8] | binding [9] | binding [10] | binding [11] | Molecule |
| --- | --- | --- | --- | --- | --- | --- | --- | --- | --- | --- | --- |
| binds | binds | no binding | no binding |  |  |  |  |  |  |  | BZR1 (brassinazole resistant 1), yeast two-hybrid fusion (from UniProt Q8S307 1-336) |
|  |  |  |  | binds | binds | binds | no binding |  |  |  | RGA-C (RGA with deletion of N-terminal 208 amino acids), yeast two-hybrid fusion (domain or fragment, UniProt Q9SLH3 209-587) VILVDSQENGVRLVHALMACAEAIQQNNLTLAEALVKQIGCLAVSQAGAMRKVATYFAEALARRIYRLSPPQNQIDHCLSDTLQMHFYETCPYLKFAHFTANQAILEAFEGKKRVHVIDFSMNQGLQWPALMQALALREGGPPTFRLTGIGPPAPDNSDHLHEVGCKLAQLAEAIHVEFEYRGFVANSLADLDASMLELRPSDTEAVAVNSVFELHKLLGRPGGIEKVLGVVKQIKPVIFTVVEQESNHNGPVFLDRFTESLHYYSTLFDSLEGVPNSQDKVMSEVYLGKQICNLVACEGPDRVERHETLSQWGNRFGSSGLAPAHLGSNAFKQASMLLSVFNSGQGYRVEESNGCLMLGWHTRPLITTSAWKLSTAAY |
|  |  |  |  |  | no binding |  |  | binds | no binding | binds | PAR1, yeast two-hybrid fusion (protein, UniProt Q9SJH0 1-118) MEETLATPDATRRSLSPSCSATVKSRAAGFERRTKRRLSETNASVREDREEAEEEEDEVKEKIEALQRIIPGGAALGVDALFEETAGYILSLQCQIKTIKVLTSFLQRIDQEDMKFGG |
